# Data from PubChem BioAssay AID493208 (National Center for Advancing Translational Sciences (NCATS), 2011).
# The campaign covered roughly 44,000 compounds. About 340 (0.77%) were called active. Roughly 5% stayed inconclusive and do not appear here. The call rests on the fitted dose curve; in most records, active means well fitted inhibition curve with a large enough effect; inconclusive means small, poorly fitted or top-dose-only effect; inactive means flat fitted curve, though single readings scatter. This is one part of the list.
# Assay: Acumen qHTS Assay for Inhibitors of the mTORC1 Signaling Pathway in MEF (Tsc2-/-, p53-/-) Cells: Sytravon; further: nearly all actives have a fitted effect of over 50% in size;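 on activity change, negative = inhibition: plate controls were DMSO for no effect and rapamycin for full effect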
# Details: phospho-rpS6 immunofluorescence/PI, 24 h; series mostly up to 38.3 µM; activity change, negative = inhibition: at the top concentration
# Outline: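 Cell-based qHTS: Tsc2-/- p53-/- MEF, 24 h cpd, 37 °C; fix/perm, anti-phospho-S6 Alexa-488 + PI; Acumen 488 nm scan; pS6/PI ratio, % positive cells; rapamycin 7.5 nM = inhibition ref; PI count = viability.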
# Potency means the concentration at half of the fitted maximal effect.
Structure (SMILES),"activity change, negative = inhibition",Potency
COc1cc(OC)cc(C(=O)NCCc2csc(-c3ccc(C(F)(F)F)cc3)n2)c1,inactive: -11.2%,–
Cc1ccc2oc(=O)c3cc(C(=O)NCCc4ccc(Cl)cc4)sc3c2c1,inactive: 3.36%,–
CCS(=O)(=O)N1CCc2cc(C(=O)NCc3ccccc3Cl)ccc21,inactive: -4.04%,–
COc1ccc(NC(=O)C(C(C)C)N2Cc3ccccc3C2=O)cc1 (stereo not drawn),inactive: -23.1%,–
CCCCc1nn2c(=O)cc(COC(=O)c3ccccc3C)nc2s1,inactive: -5.55%,–
Cc1ccc(-n2nc3c(=O)n(C(C)C(=O)NCc4ccccc4C)nc(C)c3c2C)cc1 (stereo not drawn),inactive: -2.48%,–
CCc1ccccc1NC(=O)NC(CC)Cn1nnc2ccccc2c1=O (stereo not drawn),inactive: -3.38%,–
Cc1ccc(C)c(NC(=O)CSc2nc(=O)n(Cc3ccncc3)c3c2CCC3)c1,inactive: -13%,–
CC(=O)N1c2ccc(S(=O)(=O)NCCC(=O)N(C)Cc3ccccc3)cc2CC1C (stereo not drawn),inactive: -1.98%,–
COC(=O)c1cc2sc(C)cc2n1Cc1nc(-c2ccc(C)cc2)oc1C,inactive: 1.03%,–
Cc1cc2n(n1)CCC(=O)N2Cc1ccc(C(=O)Nc2cccc(C(F)(F)F)c2)cc1,inactive: -0.712%,–
COc1ccc(-c2noc(CSc3nc4ccccc4[nH]3)n2)cc1,inactive: -0.683%,–
CC(C)c1ccc(Nc2c(-c3ccc(N(C)C)cc3)nc3cnccn23)cc1,inactive: 18.1%,–
Cc1ccc(Nc2c(-c3ccc(C)cc3)nc3c(C)cccn23)cc1,inactive: -2.33%,–
O=C(NCCc1ccc(Cl)cc1)C(=O)NCC(c1cccs1)S(=O)(=O)c1ccccc1 (stereo not drawn),inactive: -18.6%,–
CCc1cccc(C)c1NC(=O)CCS(=O)(=O)c1ccc2c(c1)oc(=O)n2C,inactive: 0%,–
COc1cccc(CN(C(=O)c2oc3ccccc3c2C)C2CCS(=O)(=O)C2)c1 (stereo not drawn),inactive: -9.01%,–
CNC(=O)c1c(NC(=O)Cc2coc3ccc(OC)cc23)sc2c1CCCC2,inactive: -3.15%,–
COc1ccc(C2CC(=O)Oc3c2c(=O)n(C)c2ccccc32)c(OC)c1OC (stereo not drawn),inactive: -1.26%,–
O=C(COc1ccccc1)Nc1ccc2nc(SCC(=O)N3CCCC3)sc2c1,inactive: -9.27%,–
CCOc1ccc(NC(=O)CS(=O)(=O)Cc2nc(-c3ccc(C)cc3)oc2C)cc1,inactive: 0%,–
CCOC(=O)c1ccc(NC(=O)c2ccc(-c3cccc(Cl)c3C)o2)cc1,inactive: 9.33%,–
CCOc1ccc(CCNC(=O)c2cc3c(-c4ccccc4F)nn(C)c3s2)cc1OCC,inactive: -0.828%,–
COc1ccc(C2c3c(-c4ccc(F)cc4)n[nH]c3C(=O)N2c2ccccc2)cc1OC (stereo not drawn),inactive: 4.81%,–
Cc1ccccc1CNC(=O)CCSCc1cnn(-c2ccccc2)c1-n1cccc1,inactive: -1.25%,–

Structure (SMILES),"activity change, negative = inhibition",Potency
COc1ccc(C2c3c(oc4ccccc4c3=O)C(=O)N2c2nc(C)c(C)s2)cc1 (stereo not drawn),inactive: -4.44%,–
Cc1ccc(S(=O)(=O)N(CC(=O)Nc2c(C)cccc2C)c2cccc(Cl)c2)cc1,inactive: 0.705%,–
Cc1nc2nc(C)c(CCC(=O)NCCc3ccccc3)c(C)n2n1,inactive: 2.09%,–
O=C(Cn1cc(S(=O)(=O)Cc2ccccc2Cl)c2ccccc21)Nc1cccc(C(F)(F)F)c1,inactive: -14.4%,–
CCOc1ccc(C(NC(=O)c2cc(OC)c(OC)c(OC)c2)c2cc(Cl)c3cccnc3c2O)cc1 (stereo not drawn),inactive: -4.6%,–
Cc1ccc2nc(CN3CCN(S(=O)(=O)c4ccccc4)CC3)oc2c1,inactive: 2.62%,–
CC(C)Oc1cccc(C(=O)Nc2ccc3oc(-c4ccccc4)nc3c2)c1,inactive: 1.92%,–
CCc1ccc(NC(=O)CSc2nc3ccccc3c(=O)n2CCC(=O)NC2CCCCC2)cc1,inactive: 0.474%,–
COC(=O)c1cc(C)nc2c1c(=O)nc(SCc1c(C)cc(C)cc1C)n2C1CC1,inactive: 0%,–
CCC(=O)N1c2ccc(S(=O)(=O)N3CCCCCC3)cc2CC1C (stereo not drawn),inactive: -0.941%,–
CCC(Sc1nc2cc3c(cc2c(=O)n1CCCC(=O)NCc1ccc2c(c1)OCO2)OCO3)C(=O)NCCCOC (stereo not drawn),inactive: -5.53%,–
Cc1ccc(NC(=O)COc2ccc(-c3nn(C)c(=O)c4ccccc34)cc2)c(C)c1,inactive: -19.9%,–
Nc1c(-c2nc(-c3ccccc3Cl)no2)nnn1-c1ccccc1F,inactive: -0.69%,–
COC(=O)c1cc2oc3ccccc3c2n1CC(=O)Nc1ccc(N(C)C)cc1,inactive: 1.29%,–
CCC(=O)Nc1nnc(S(=O)(=O)N2CCCCCC2)s1,inactive: -3.35%,–
Cn1cc(S(=O)(=O)N2CCCCC2)cc1C(=O)NCc1ccc(Cl)cc1,inactive: -0.969%,–
COc1ccc(NC(=O)C(NS(=O)(=O)c2cccc3nsnc23)c2ccccc2)cc1 (stereo not drawn),inactive: -10.5%,–
CCOc1cc(-c2nnc(SCC(=O)NCCCOC)nc2-c2ccc(OC)c(OCC)c2)ccc1OC,inactive: -11.3%,–
CCCCSc1nnc2c(n1)OC(c1ccc(C)s1)Nc1ccccc1-2 (stereo not drawn),inactive: 12.7%,–
CCC(CC)c1nn2cc(-c3ccccc3)nc2s1,inactive: 0.759%,–
Cc1ccc(N2CCN(S(=O)(=O)c3cc(Br)cc4c3N(C(=O)C3CC3)CC4)CC2C)cc1 (stereo not drawn),inactive: 12%,–
CCS(=O)(=O)N1CC(=O)N(c2ccc(C)c(C)c2)C(C)(C(=O)NC2CCCCCC2)C1 (stereo not drawn),inactive: 0.616%,–
COc1ccc(-c2cn3c(n2)sc2cc(C(=O)N4CCCCC4)ccc23)cc1,inactive: -11.7%,–
COc1ccc(N2CC(NC(=O)Cc3cccs3)CC2=O)cc1OC (stereo not drawn),inactive: -13.5%,–
CCCCOC(=O)c1ccc(NC(=O)/C(C#N)=C/c2ccc(C)o2)cc1,inactive: 10.7%,–

Structure (SMILES),"activity change, negative = inhibition",Potency
CCCCNS(=O)(=O)c1ccc2nc(-c3cccnc3)cc(C(=O)NCCCOCC)c2c1,inactive: -0.634%,–
Cc1ccc(NC(=O)COCc2cc(-c3cccs3)on2)cc1Cl,inactive: -2.49%,–
CCOc1ccccc1CNC(=O)CCn1cccn1,inactive: 0.675%,–
Cc1[nH]c2ccccc2c1C(=O)C(=O)NC1CC(=O)N(c2ccccc2)C1 (stereo not drawn),inactive: -1.06%,–
Cc1cccc(-n2c(SCC(=O)Nc3ccccc3C)nc3c(oc4ccccc43)c2=O)c1,inactive: -3.05%,–
COC(=O)c1ccc(NC(=O)CN(c2cccc(C(F)(F)F)c2)S(C)(=O)=O)cc1,inactive: 3.81%,–
CCc1ccccc1N1C(=O)N(C)c2ccccc2S1(=O)=O,inactive: -12.1%,–
CSc1nn(Cc2ccc(F)cc2)c(N)c1S(=O)(=O)c1ccc(Cl)cc1,inactive: -13.5%,–
COc1cccc(CSc2nc(-c3ccccc3OC)nc3c2Cc2c(CO)cnc(C)c2O3)c1,inactive: -8.08%,–
CCCN(CCC)CCCNC(=O)C1CCN(S(=O)(=O)c2cccc3nsnc23)CC1,inactive: -5.43%,–
CCOc1ccc(S(=O)(=O)N2CCN(c3ccc(C)cc3C)CC2)c2ccccc12,inactive: -1.43%,–
O=C1COc2ccc(-c3cc(-c4ccc(F)cc4)c4c(n3)-c3ccccc3OC4)cc2N1,inactive: 1.47%,–
CCN(C(=O)c1ccc2c(=O)n3c(nc2c1)CCCCC3)c1cc(C)ccc1C,inactive: 0.985%,–
Cc1ccc(C(=O)CC2(O)C(=O)N(Cc3ccccc3)c3ccc(Br)cc32)cc1 (stereo not drawn),–,active: 10.4 µM
CSc1cccc(NC(=O)CN(C)S(=O)(=O)c2ccc3c(c2)CCCN3C(C)=O)c1,inactive: -1.03%,–
CCCOc1cccc(C2c3c(oc4cc(C)c(C)cc4c3=O)C(=O)N2CCCN2CCOCC2)c1 (stereo not drawn),inactive: 5.17%,–
CCC(=O)N1CCc2cc(S(=O)(=O)NC(C(=O)NCCc3ccc(C)cc3)C(C)C)ccc21 (stereo not drawn),inactive: -6.39%,–
COCc1cc(C)n(CC(=O)Nc2cccc(C(C)=O)c2)c(=O)c1C#N,inactive: 4.49%,–
Cc1ccc(C)c(C(=O)CSc2nc3cc(C(=O)NC4CCCC4)ccc3c(=O)n2CC2CCCO2)c1 (stereo not drawn),inactive: -6.04%,–
CCOc1ccccc1C(=O)N1CCCCC1CCN1CCOCC1 (stereo not drawn),inactive: -6.14%,–
Cc1ccc(-c2nc3cc(NC(=O)c4cc(Br)ccc4Cl)ccc3o2)cc1,inactive: -10.9%,–
CC(C)CCNC(=O)c1ccc2c(c1)N(C)C(=O)c1ccccc1S2,inactive: 14.5%,–
CC1CCN(S(=O)(=O)c2cn(CC(=O)Nc3ccc(F)cc3)c(=O)c3ccccc23)CC1,inactive: -21.3%,–
CCOc1cc2[nH]c(=O)n(CCCCCC(=O)NC(C)CC)c(=O)c2cc1OCC (stereo not drawn),inactive: -0.326%,–
CC(C)c1nn2c(=O)cc(COC(=O)c3ccccc3Cl)nc2s1,inactive: -9.86%,–

Structure (SMILES),"activity change, negative = inhibition",Potency
O=C(O)CCn1ccc2cc(S(=O)(=O)N3CCCCC3)ccc21,inactive: -4.13%,–
CCn1cc2nc(SCc3cccc(F)c3)n(CCc3ccccc3)c(=O)c2n1,inactive: -7.03%,–
COc1ccc(-c2csc(-c3c(N)c(C(=O)c4ccccc4)n4ccccc34)n2)cc1,inactive: -3.83%,–
O=C(NCc1ccccc1Cl)C1CCN(c2ncnc3c2nc2n3CCCCC2)CC1,inactive: 0.612%,–
Cc1nnc(NC(=O)CSCc2cc(=O)c3ccc(C)c(C)c3[nH]2)s1,inactive: 0%,–
Cc1cc(C)n2c(Nc3cccc(C(F)(F)F)c3)c(-c3ccsc3)nc2n1,inactive: -3.66%,–
CC(C)c1ccc(S(=O)(=O)c2cnc(SCC(=O)Nc3ccc(F)cc3F)nc2N)cc1,inactive: -1.26%,–
Cc1ccc2oc(=O)c3cc(C(=O)Nc4cccc(C#N)c4)sc3c2c1,inactive: -9.24%,–
Cc1cc(C)cc(-n2ccnc2SCC(=O)Nc2ccc(C)c(Cl)c2)c1,inactive: -16.1%,–
O=C(CN1CCN(c2ccc(Cl)cc2)CC1)Nc1ccc(F)c(F)c1,inactive: 3.96%,–
O=C(Cn1nnnc1-c1ccccc1F)Nc1ccc(F)c(F)c1,inactive: -3.17%,–
COc1ccc(NC(=O)c2[nH]nc3c2CSc2ccccc2-3)c(OC)c1,inactive: 4.44%,–
CCOc1ccccc1NC(=O)c1nnn(CC(=O)Nc2ccccc2CC)c1N,inactive: 1.93%,–
CCOC(=O)N1CCc2c(sc3c2c(=O)n(-c2ccc(F)cc2)c(=O)n3CC(=O)c2ccccc2)C1,inactive: -2.13%,–
Cc1cccc(CN2C(=O)c3ccccc3Sc3ccc(C(=O)NCc4cccs4)cc32)c1,inactive: -1.53%,–
O=C(NCCc1ccccc1)C1COc2ccccc2C1 (stereo not drawn),inactive: -11.8%,–
CCc1ccc(NC(=O)c2cc(C)nn2-c2ccccc2)cc1,inactive: -7%,–
CCOC(=O)c1c(C)n(-c2ccccc2)c2ccc(OC(=O)c3cc(OC)cc(OC)c3)cc12,inactive: 10%,–
Cc1cc(=O)n(CC(=O)NC(C)c2ccccc2)c2c1c(C)nn2C (stereo not drawn),inactive: 5.18%,–
CCOC(=O)c1c(NC(=O)c2cc3ccccc3c(=O)o2)sc2c1CCC(C(C)(C)C)C2 (stereo not drawn),inactive: 2.71%,–
CCOc1ccc(NC(=O)CCNS(=O)(=O)c2cccc3nsnc23)cc1,inactive: -24.3%,–
Cc1ccc(Nc2nc(C)c(NC(=O)c3ccc(C)cc3)c(Nc3ccc(C)cc3)n2)cc1,inactive: -1.37%,–
CCS(=O)(=O)N1CCc2cc(C(=O)Nc3cc(OC)c(Cl)cc3OC)ccc21,inactive: 2.63%,–
